According to the supplement of paper PMC11876631:
Where a chain is given by its changes, count along the chain named. In names and notes the source's numbering stands. ± gives the standard deviation of the averaged measurements. Laboratory Escherichia coli strains with one amino-acid change in an essential protein, pooled on minimal glucose agar with carbenicillin or gentamicin at twice the control MIC (plus kanamycin and chloramphenicol for the plasmids), 48 h. Fold change of barcode share against drug-free plates; higher = less susceptible. Active = above 20 in both replicates (the paper's putatively resistant). '<' = one read or none on drug, '>' = one read or none on a drug-free plate. Shares are relative, so most strains fall below 1 when a few take over. Listed are strains with at least 15 reads on both drug-free plates, and hits; most hits rest on fewer reference reads. Replicate rank correlation about 0.5. Edits are read from barcodes.

B1: acpS I124A (protein)
chain: MAILGLGTDIVEIARIEAVIARSGDRLARRVLSDNEWAIWKTHHQPVRFLAKRFAVKEAAAKAFGTGIRNGLAFNQFEVFNDELGKPRLRLWGEALKLAEKLGVANMHVTLADERHYACATVIAES
B2: acpS I124W (protein)
chain: B1 chain with A124W
B3: der V130P (protein)
chain: MVPVVALVGRPNVGKSTLFNRLTRTRDALVADFPGLTRDRKYGRAEIEGREFICIDTGGIDGTEDGVETRMAEQSLLAIEEADVVLFMVDARAGLMPADEAIAKHLRSREKPTFLVANKTDGLDPDQAVPDFYSLGLGEIYPIAASHGRGVLSLLEHVLLPWMEDLAPQEEVDEDAEYWAQFEAEENGEEEEEDDFDPQSLPIKLAIVGRPNVGKSTLTNRILGEERVVVYDMPGTTRDSIYIPMERDGREYVLIDTAGVRKRGKITDAVEKFSVIKTLQAIEDANVVMLVIDAREGISDQDLSLLGFILNSGRSLVIVVNKWDGLSQEVKEQVKETLDFRLGFIDFARVHFISALHGSGVGNLFESVREAYDSSTRRVGTSMLTRIMTMAVEDHQPPLVRGRRVKLKYAHAGGYNPPIVVIHGNQVKDLPDSYKRYLMNYFRKSLDVMGSPIRIQFKEGENPYANKRNTLTPTQMRKRKRLMKHIKKNK
B4: der I422A (protein)
chain: B3 chain with P130V, I422A
B5: der V317A (protein)
chain: B3 chain with P130V, V317A
B6: der M88Q (protein)
chain: B3 chain with M88Q, P130V
B7: der I318P (protein)
chain: B3 chain with P130V, I318P
B8: der V317Q (protein)
chain: B3 chain with P130V, V317Q
B9: der V317D (protein)
chain: B3 chain with P130V, V317D
B10: der M88A (protein)
chain: B3 chain with M88A, P130V
B11: dfp V325A (protein)
chain: MSLAGKKIVLGVSGGIAAYKTPELVRRLRDRGADVRVAMTEAAKAFITPLSLQAVSGYPVSDSLLDPAAEAAMGHIELGKWADLVILAPATADLIARVAAGMANDLVSTICLATPAPVAVLPAMNQQMYRAAATQHNLEVLASRGLLIWGPDSGSQACGDIGPGRMLDPLTIVDMAVAHFSPVNDLKHLNIMITAGPTREPLDPVRYISNHSSGKMGFAIAAAAARRGANVTLVSGPVSLPTPPFVKRVDVMTALEMEAAVNASVQQQNIFIGCAAVADYRAATVAPEKIKKQATQGDELTIKMVKNPDIVAGVAALKDHRPYVAGFAAETNNVEEYARQKRIRKNLDLICANDVSQPTQGFNSDNNALHLFWQDGDKVLPLERKELLGQLLLDEIVTRYDEKNRR
B12: dfp V325W (protein)
chain: B11 chain with A325W

target: Escherichia coli (laboratory strain); experiment: barcode share on antibiotic plates over drug-free plates; higher = less susceptible; details: antibiotic: carbenicillin; 2× MIC (3.1 µg/mL)
Protocol: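 A pool of E. coli strains, each edited to carry one amino-acid change in an essential protein, was grown for 48 h on minimal glucose agar with or without antibiotic; strain barcodes were sequenced; mean of two replicates.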

Protein	fold change of barcode share
B1	0.368 ± 0.045
B2	0.285 ± 0.027
B3	0.386 ± 0.13
B4	0.527 ± 0.18
B5	0.219 ± 0.022
B6	0.254 ± 0.061
B7	0.303 ± 0.063
B8	0.255 ± 0.17
B9	0.707 ± 0.35
B10	0.502 ± 0.37
B11	0.626 ± 0.56
B12	1.38 ± 0.98

same assay, conditions: antibiotic: gentamicin; 2× MIC (MIC 0.45 µg/mL)

Protein	fold change of barcode share
B2	0.0166 ± 0.015
B3	0.00445 ± 0.0025
B4	0.0168 ± 0.016
B5	0.00402 ± 0.0033
B6	0.00749 ± 0.0079
B7	0.00972 ± 0.011
B8	0.00516 ± 0.002
B9	0.0106 ± 0.011
B10	0.0102 ± 0.0061
B11	0.00707 ± 0.0016
B12	< 0.0206
